# Experimental data: PubChem BioAssay (NCATS)
# The shares of active, inactive and inconclusive entries below differ from those in the screen. A potency beside an inconclusive call is a rough fit, not a confirmed value. Activity calls are given as the source filed them. Calls follow the shape of the dose curve; as a rule, active = well fitted cell-killing curve with a large enough effect; inconclusive = small, poorly fitted or top-dose-only effect; inactive = flat fitted curve, though single readings scatter. Residues, ends and D or L forms follow the SMILES beside them.
# Assay: qHTS of pediatric cancer cell lines to identify multiple opportunities for drug repurposing: Primary screen for BT-37 cells (AID 1347094);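 as to activity change, negative = cytotoxic: plate controls were DMSO for no effect and bortezomib for full effect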
# Conditions: BT-37 viability, CellTiter-Glo luminescence, 48 h; series mostly up to 57.3 µM; activity change, negative = cytotoxic: at the top concentration
# Procedure, shortened: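 Quantitative HTS format: each compound titrated (MIPE 11 points from 0.78 nM, NPC 8 points from 0.59 nM) onto cells plated 5 hours earlier. After 48 h at 37 degrees C, CellTiter-Glo luminescence was recorded.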
# Potency is read from the fitted curve at half-maximal effect; tags tell the direction and shape of the fitted curve.
Compound,Potency,"activity change, negative = cytotoxic"
COC(=O)[C@H](Cc1ccccc1)NC(=O)[C@@H](N)CC(=O)O (H-Asp-Phe-OMe),inactive,
CC(C)C(C)C=CC(C)C1CCC2C3=CC=C4CC(O)CCC4(C)C3CCC21C (stereo not given),,inactive: 18.1%
O=C1CCCC(=O)C1C(=O)c1ccc(C(F)(F)F)cc1[N+](=O)[O-],"inconclusive: 21.7 µM [cytotoxic, partial curve, poor fit]",
Cc1noc(-c2ccc(CSCCC(=O)O)cc2)c1NC(=O)OC(C)c1ccccc1Cl (stereo not given),,inactive: 7.6%
COc1cc2ncnc(-n3nc(-c4ccccn4)nc3N)c2cc1OC,"inconclusive: 5.44 µM [cytotoxic, full curve]",
CCC(=O)O[C@]1(C(=O)CO)CC[C@H]2[C@@H]3CCC4=CC(=O)CC[C@]4(C)[C@@H]3CC[C@@]21C,,inactive: 1.19%
CCOc1cc(CC(=O)N[C@@H](CC(C)C)c2ccccc2N2CCCCC2)ccc1C(=O)O,,inactive: -14%
Cn1cnc2c(F)c(Nc3ccc(Br)cc3Cl)c(C(=O)NOCCO)cc21,"inconclusive: 13.7 µM [cytotoxic, partial curve]",
CCN1C[C@H](C)n2c(c(O)c3c(=O)n(Cc4ccc(F)c(Cl)c4)nc(C(=O)NC)c32)C1=O,,inactive: -1.22%
COc1c(O)cc2c(c1O)[C@@H]1O[C@H](CO)[C@@H](O)[C@H](O)[C@H]1OC2=O,,inactive: -3.33%
